This test relates to A673/TR/shEF. The test can be described thus: cell viability (LOESS-normalised, relative to median of negative controls) (log2 ratio); higher = more viable cells (less compound effect), active = hit call of the paper (over 3 MAD below the median). Conditions: treatment time: 72 h. Summed up:
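A673/TR/shEF Ewing sarcoma cells (1,500 per well, 384-well plates) were grown with or without doxycycline to induce EWS-FLI1 shRNA knockdown, starting 24 h before compounds. Library compounds at two or more concentrations, with DMSO controls, were added for three days. Cell viability was read by CellTiter-Glo luminescence on an Envision reader, then LOESS-corrected per plate, divided by the median of negative controls and log2-transformed. Hits were wells at least three median absolute deviations from the median of all screened wells.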

Where [1] appears, read: 0.25 µM, library screen: screen1, EWS-FLI1 expression: high (no doxycycline).
Where [2] appears, read: 0.25 µM, library screen: screen1, EWS-FLI1 expression: low (doxycycline-induced shRNA knockdown).
Setting [3] is: 2.5 µM, library screen: screen1, EWS-FLI1 expression: high (no doxycycline).
Setting [4] is: 2.5 µM, library screen: screen1, EWS-FLI1 expression: low (doxycycline-induced shRNA knockdown).
Setting [5] is: 0.25 µM, library screen: screen2, EWS-FLI1 expression: high (no doxycycline).
The mark [6] stands for this setting: 0.25 µM, library screen: screen2, EWS-FLI1 expression: low (doxycycline-induced shRNA knockdown).
Setting [7] is: 2.5 µM, library screen: screen2, EWS-FLI1 expression: high (no doxycycline).
Setting [8] is: 2.5 µM, library screen: screen2, EWS-FLI1 expression: low (doxycycline-induced shRNA knockdown).
Setting [9] is: 25 µM, library screen: screen1, EWS-FLI1 expression: high (no doxycycline).

About 300 (9.4%) of roughly 3,200 compounds showed activity. This is a selection; strong and weak results do not stand in their true shares.

With `CC(C)(O)[C@@H]1[C@H]2OC(=O)[C@@H]1[C@]1(O)C[C@H]3O[C@]34C(=O)O[C@H]2[C@]14C`, the “cell viability (log2)” value runs as follows: under setting [1], 0.592; under setting [2], inactive: 0.12; under setting [3], inactive: 0.239; under setting [4], inactive: 0.206.

In the case of `CC(C)(C#N)O[C@@H]1O[C@H](CO)[C@@H](O)[C@H](O)[C@H]1O`, the “cell viability (log2)” value was inactive: 0.0597 under setting [1], inactive: 0.0616 under setting [2], inactive: 0.164 under setting [3] and inactive: -0.0392 under setting [4].

As to `COc1cc(C(O)CN)ccc1O` (centres undefined), the “cell viability (log2)” value by setting is: under setting [5], inactive: 0.137; under setting [6], inactive: 0.137; under setting [7], inactive: 0.0316; under setting [8], inactive: 0.00185.

In the case of `N#CC(C#N)=Cc1cc(O)c(O)c([N+](=O)[O-])c1`, the “cell viability (log2)” value is, setting by setting: under setting [3], active: -0.167; under setting [9], active: -0.153.

Regarding `C[C@@H]1C[C@@H]([C@H](O)CC2CC(=O)NC(=O)C2)C(=O)[C@@H](C)C1`, the “cell viability (log2)” value under setting [3] was active: -0.514; the “cell viability (log2)” value under setting [4] is active: -0.278; the “cell viability (log2)” value under setting [7] was active: -0.922; the “cell viability (log2)” value under setting [8] is active: -0.399; the “cell viability (log2)” value (25 µM, library screen: screen2, EWS-FLI1 expression: high (no doxycycline)) is active: -2.23; the “cell viability (log2)” value (25 µM, library screen: screen2, EWS-FLI1 expression: low (doxycycline-induced shRNA knockdown)) is active: -1.54.

On to `CNc1ccc2oc(C[C@@H]3OC4(CC[C@@H]3C)O[C@H](C(C)C(=O)c3ccc[nH]3)[C@H](C)C[C@H]4C)nc2c1C(=O)O` (some centres undefined), for which the “cell viability (log2)” value under setting [1] was inactive: 0.111; the “cell viability (log2)” value under setting [2] was inactive: 0.0323; the “cell viability (log2)” value under setting [5] was active: -0.082; the “cell viability (log2)” value under setting [6] is inactive: 0.0959; the “cell viability (log2)” value under setting [3] is inactive: -0.0263; the “cell viability (log2)” value under setting [4] is inactive: -1.11. Also, the “cell viability (log2)” value reads like this: under setting [7], active: -0.175; under setting [8], inactive: 0.1.

As to `CC(C)(C)c1cc(C=C(C#N)C#N)cc(C(C)(C)C)c1O`, the “cell viability (log2)” value runs as follows: under setting [3], active: -1.1; under setting [9], active: -3.7; (25 µM, library screen: screen1, EWS-FLI1 expression: low (doxycycline-induced shRNA knockdown)) active: -2.45.

With `O=C(O)c1nn(Cc2ccc(Cl)cc2Cl)c2ccccc12`, the “cell viability (log2)” value is inactive: 0.228 under setting [1]; inactive: 0.122 under setting [2]; inactive: 0.112 under setting [5]; inactive: 0.137 under setting [6]; inactive: 0.215 under setting [3]; inactive: 0.0979 under setting [4]. Moreover, the “cell viability (log2)” value by setting is: under setting [7], inactive: 0.168; under setting [8], inactive: 0.101.

Take `CCCCOC(=O)c1ccccc1C(=O)OCCCC`: the “cell viability (log2)” value under setting [1] is inactive: 0.118, the “cell viability (log2)” value under setting [2] was inactive: 0.0394, the “cell viability (log2)” value under setting [3] is inactive: 0.0831 and the “cell viability (log2)” value under setting [4] was inactive: -0.283.

Consider `COc1ccc2c(c1OC)C(=O)O[C@H]2[C@H]1c2cc3c(cc2CCN1C)OCO3`, for which the “cell viability (log2)” value under setting [1] is inactive: 0.11, the “cell viability (log2)” value under setting [2] is inactive: 0.0969, the “cell viability (log2)” value under setting [3] is inactive: -0.0012 and the “cell viability (log2)” value under setting [4] is inactive: 0.0503.

In the case of `CC[C@@H](CO)NC(=O)[C@@H]1C=C2c3cccc4[nH]cc(c34)C[C@H]2N(C)C1`, the “cell viability (log2)” value is, setting by setting: under setting [5], inactive: 0.18; under setting [6], inactive: 0.103; under setting [7], inactive: 0.127; under setting [8], inactive: 0.0973.

As to `CCOC(=O)c1ncn2c1[C@@H]1CCCN1C(=O)c1cc(OC)ccc1-2`, the “cell viability (log2)” value under setting [5] is inactive: 0.0615, the “cell viability (log2)” value under setting [6] is inactive: 0.0119, the “cell viability (log2)” value under setting [7] is inactive: 0.0436 and the “cell viability (log2)” value under setting [8] is inactive: 0.0121.

Consider `NC(N)=Nc1ccc2[nH]c3c(c2c1)C[C@@]1(O)[C@H]2Cc4ccc(O)c5c4[C@@]1(CCN2CC1CC1)[C@H]3O5`, for which the “cell viability (log2)” value was inactive: 0.0964 under setting [5], inactive: 0.0365 under setting [6], inactive: 0.0323 under setting [7] and inactive: 0.0828 under setting [8].

These data come from the supplement of paper PMC6089552.
